Measurements reported in PubChem BioAssay AID1030 (National Center for Advancing Translational Sciences (NCATS), 2008).
Among all 220,000 compounds or so, about 16,000 (7.3%) were called active. The inconclusive results got no clear call from the source; some entries with a clear call stand among them for comparison. The call rests on the fitted dose curve; in most records, active means well fitted inhibition curve with a large enough effect (not every such curve was filed as active); inconclusive means small, poorly fitted or top-dose-only effect, or another doubt; inactive means no such curve, though single readings can be large or run the other way. No potency is given beside an inconclusive call; the fits are too rough.
Potency means the concentration at half of the fitted maximal effect; tags describe the fitted curve by direction and shape.

The molecules below were run against Aldehyde dehydrogenase 1A1 (Homo sapiens) (UniProt P00352) (assay: qHTS Assay for Inhibitors of Aldehyde Dehydrogenase 1 (ALDH1A1)). Conditions: Purified ALDH1A1, NADH fluorescence, propionaldehyde substrate; series mostly up to 75.3 µM.
Sequence of UniProt P00352 (P00352 whole entry, looked up): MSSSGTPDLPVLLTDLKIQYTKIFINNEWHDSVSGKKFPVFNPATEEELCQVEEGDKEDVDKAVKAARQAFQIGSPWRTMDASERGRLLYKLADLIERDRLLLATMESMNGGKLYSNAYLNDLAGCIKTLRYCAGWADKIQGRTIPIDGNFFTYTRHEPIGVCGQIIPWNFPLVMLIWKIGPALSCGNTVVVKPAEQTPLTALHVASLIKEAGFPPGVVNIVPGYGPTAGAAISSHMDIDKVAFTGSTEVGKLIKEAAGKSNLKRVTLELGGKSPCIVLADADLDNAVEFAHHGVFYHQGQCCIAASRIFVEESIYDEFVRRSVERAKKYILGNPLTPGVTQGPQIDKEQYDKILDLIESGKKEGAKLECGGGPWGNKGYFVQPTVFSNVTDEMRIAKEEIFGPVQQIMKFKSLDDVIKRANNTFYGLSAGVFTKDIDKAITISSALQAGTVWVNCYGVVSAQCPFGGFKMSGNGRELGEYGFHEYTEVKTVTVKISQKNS
With CCCn1nc(NC(=O)c2cccs2)c2cc3ccc(C)cc3nc21 the Potency was inconclusive [inhibitor, single point].
COc1ccc(C(=O)ON=C2CCN(c3ccc([N+](=O)[O-])cc3)CC2)cc1 was tested, and the Potency was active: 3.98 µM.
Cc1nc(C)c(/C(O)=C/c2nc3ccccc3oc2=O)s1 was tested, and the Potency was inconclusive [inhibitor, single point].
COc1ccc(Nc2oc(COc3ccc(C)cc3)nc2C#N)cc1 was tested, and the Potency was inconclusive [inhibitor, single point].
In the case of COc1ccc2nc(/N=C/c3c(C)[nH]n(-c4ccc(C)cc4)c3=O)sc2c1, the Potency is reported as inconclusive [inhibitor, single point].
In the case of Cc1ccc(C2C=C(c3ccccc3OC(F)F)Nc3ncnn32)cc1 (stereo unspecified), the Potency is reported as inconclusive [inhibitor, single point].
With COc1ccc(C2C(C(=O)c3sc(C)nc3C)=C(O)C(=O)N2CCN(C)C)cc1OC (stereo unspecified) the Potency was inconclusive [inhibitor, single point].
With O=C1C(Cl)=C(Nc2ccccc2O)C(=O)N1CCc1ccccc1 the Potency was active: 3.98 µM.
With CSc1nnc(-c2cc(Br)ccc2N=Cc2c(C)[nH]n(-c3ccccc3)c2=O)c(=O)[nH]1 the Potency was active: 18.9 µM.
C=CCOc1ccc(CNn2c(C)n[nH]c2=S)cc1OC was tested, and the Potency was inconclusive [inhibitor, single point].
For Cc1ccc(-c2cc(N)n(-c3ccccc3)n2)cc1, the Potency was inconclusive [inhibitor, single point].
O=C(O)c1ccc(Cl)c(S(=O)(=O)Nc2ccccc2)c1 was tested, and the Potency was “inactive”.
For CC(C)=CC(=O)OCC(=O)Nc1ccc(Cl)cn1, the Potency was inconclusive [inhibitor, single point].
With NNC(=O)CNC(c1ccccc1)c1cc(Br)ccc1NC(=O)c1ccccc1Br (stereo unspecified) the Potency was inconclusive [inhibitor, single point].
NS(=O)(=O)c1ccc(N/C=C\C(=O)c2ccc3ccccc3c2)cc1 was tested, and the Potency was inconclusive [inhibitor, full curve, poor fit].
With CC1(C(=O)NC2CCCC2)CCC(=O)N1Cc1ccccc1Cl (stereo unspecified) the Potency was “inactive”.
With Cn1c(/C=N/NC(=O)c2ccccc2)nc2ccccc21 the Potency was inconclusive [inhibitor, single point].
COc1ccc(S(=O)(=O)c2nnn(-c3cccc(Cl)c3)c2N)cc1 was tested, and the Potency was “inactive”.
With Cc1nc2cncnc2n(Cc2ccccc2)c1=O the Potency was “inactive”.
In the case of Clc1cccc(CN2CCC(Cc3ccccc3)CC2)c1, the Potency is reported as active: 20 µM.
In the case of N#CCCN(Cc1cccnc1)C(=O)Nc1ccc(Cl)c(Cl)c1, the Potency is reported as “inactive”.
In the case of CCNC(=S)NNc1nc(N2CCOCC2)nc(N2CCOCC2)n1, the Potency is reported as “inactive”.
With COc1cccc(CNc2cc(CSc3ccc(Cl)cc3)nc(C)n2)c1 the Potency was “inactive”.
COc1ccc(N2C(=O)CC(C3CCCO3)C2=O)cc1 (stereo unspecified) was tested, and the Potency was “inactive”.
In the case of O=c1oc2c(CN3CCCCCC3)c(O)ccc2cc1-c1nc2ccccc2[nH]1, the Potency is reported as inconclusive [inhibitor, partial curve].
COCC(=O)Nc1nnc(COc2ccc(Cl)cc2)s1 was tested, and the Potency was “inactive”.
For COc1ccc(NC(=O)NNC(=O)c2ccccc2-n2cccc2)cc1OC, the Potency was “inactive”.
With Cc1ccc(-c2ccc(C3C(C#N)=C(N)Oc4n[nH]c(C)c43)o2)cc1 (stereo unspecified) the Potency was inconclusive [inhibitor, partial curve].
In the case of CCCNC(=O)NC1CCCCCCC1, the Potency is reported as inconclusive [inhibitor, single point].
For O=C(CSc1nc2scc(-c3ccco3)c2c(=O)n1-c1ccccc1)NCC1CCCO1 (stereo unspecified), the Potency was active: 12.6 µM.
In the case of Cn1sc(NC(=O)c2ccccc2Cl)nc1=O, the Potency is reported as active: 11.2 µM.
In the case of CCC(=O)Nc1ccc(/C(C)=N/NC(=O)c2c(-c3ccccc3Cl)noc2C)cc1, the Potency is reported as inconclusive [inhibitor, single point].
CCCCOCCO was tested, and the Potency was “inactive”.
In the case of O=C(O)c1ccc2c(c1)C(=O)N(c1ncccn1)C2=O, the Potency is reported as “inactive”.
O=S(=O)(c1cccs1)N1CN(CC2CCCO2)c2nc3ccccc3nc21 (stereo unspecified) was tested, and the Potency was inconclusive [inhibitor, single point].
COc1ccc2c(CCNC(=O)CN3C(=O)c4ccccc4C3=O)c[nH]c2c1 was tested, and the Potency was “inactive”.
In the case of S=C(NCc1ccccn1)Nc1ccc(Cl)cc1, the Potency is reported as inconclusive [inhibitor, single point].
With Cc1cc(C)n2c(Br)c(CN3CCCC(C)C3)nc2n1 (stereo unspecified) the Potency was inconclusive [inhibitor, partial curve].
In the case of CC(NC(=O)c1cc2ccccc2o1)c1cccs1 (stereo unspecified), the Potency is reported as inconclusive [inhibitor, single point].
In the case of CCOC(=O)c1cnc2ccc(OCC)cc2c1NCc1ccccc1OC, the Potency is reported as inconclusive [inhibitor, partial curve].
Cc1c(C(=O)N2CCN(C)CC2)oc2c1C(=O)CC(C)(C)C2 was tested, and the Potency was active: 22.4 µM.
For O=C(NCCCn1ccnc1)Nc1cccc(Cl)c1, the Potency was inconclusive [inhibitor, single point].
In the case of CCC(=O)N(CCC(Cc1ccccc1)c1ccco1)Cc1ccco1 (stereo unspecified), the Potency is reported as active: 14.1 µM.
CCOC(=O)c1c(C)nc2ccc(C)cn12 was tested, and the Potency was “inactive”.
With CC(=O)c1c(COC(=O)c2ccco2)nc2ccccc2[n+]1[O-] the Potency was inconclusive [inhibitor, single point].
In the case of O=C(Cc1ccccc1)NC(NCCc1ccccc1)C(Cl)(Cl)Cl (stereo unspecified), the Potency is reported as “inactive”.
For COc1ccc(CN2CCNC(=O)C2CC(=O)N2CCCCO2)cc1OC (stereo unspecified), the Potency was inconclusive [inhibitor, single point].
With COC(=O)c1c(-c2ccc(C)cc2)csc1NC(=S)NC(=O)c1ccc(F)cc1 the Potency was inconclusive [inhibitor, single point].
COC(=O)c1cc2c(-c3ccccc3)c(C)c3ccccn3c-2c1C(=O)OC was tested, and the Potency was active: 20 µM.
For CCOC(=O)C1(CC2CCCCO2)CCN(Cc2c(C)cc(C)cc2-n2cccn2)CC1 (stereo unspecified), the Potency was inconclusive [inhibitor, single point].
For CCOc1cc(C=O)ccc1OCCCN1C(=O)NC(C)(C)C1=O, the Potency was inconclusive [inhibitor, single point].
